Results published in PubChem BioAssay AID1963576 (National Center for Advancing Translational Sciences (NCATS), 2024).
In all, about 46,000 compounds went through this assay and about 60 (0.1%) were called active. Roughly 3% stayed inconclusive and do not appear here. Calls come from the whole dose curve; as a rule, active = well fitted inhibition curve with a large enough effect; inconclusive = small, poorly fitted or top-dose-only effect; inactive = no such curve, though single readings can be large or run the other way. The list shows a part of the results.

assay: Primary qHTS assay for Inhibitors of ovarian cancer metastasis using an organotypic tumor microenvironment (TME) model.; note: nearly all actives have a fitted effect of over 65% in size;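 for activity change, negative = inhibition: plate controls were DMSO wells for no effect and tomatine positive control wells for full effect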; settings: SKOV3ip1-GFP adhesion/invasion on 3D omental model, fluorescence; series mostly up to 45.8 µM; activity change, negative = inhibition: at the top concentration
Method in brief: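 Adhesion/invasion was scored as fixed GFP-labeled SKOV3ip1 cell counts (488/509 nm), normalized to DMSO and tomatine controls. Cancer cells in serum-free medium, with four compound doses (0.36-46 umol/L), sat 2 hr at RT then 16 hr at 37 C on a 48 hr fibroblast/mesothelial/ECM culture.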

outcome, inactive:
CCOc1ccc(NC(=O)Cn2c(=O)n(-c3ccc(C)cc3)c(=O)c3cc(OC)c(OC)cc32)cc1, Brc1ccccc1-n1ncc2c1ncn1nc(Cc3ccccc3)nc21, CCOc1ccc(C2c3c(-c4ccc(C)cc4)n[nH]c3C(=O)N2c2ccc(Cl)cc2)cc1 (stereo unspecified), O=C(CSc1nnc(NC(=O)NC2CCCCC2)s1)Nc1ccccc1F, COc1ccccc1NC(=O)C1=C(C)Nc2nc(SCc3ccccc3)nn2C1c1ccccn1 (stereo unspecified), COc1ccc(C(=O)Nc2ccccc2C(=O)OCc2cc(=O)n3c4c(sc3n2)CCCC4)cc1, Cc1nc2c(c(C)c1CCC(=O)Nc1cccc(C(F)(F)F)c1)c(=O)n(C)c(=O)n2C, COC(=O)c1cc2oc3ccccc3c2n1Cc1cccc(C)c1, COc1ccccc1CNC(=O)CCn1c(=O)c2ccccc2n(CC(=O)Nc2ccc(C)cc2)c1=O, CCCCCn1c(=O)[nH]c2cc(C(=O)Nc3cc(OC)cc(OC)c3)ccc2c1=O, Cc1nn(S(=O)(=O)c2ccc(C(C)C)cc2)c(C)c1S(=O)(=O)N1CCCCCC1, COc1ccc(-c2nsc(NC(=O)COc3ccc(C)c(C)c3)n2)cc1, Cc1cc(C)cc(NC(=O)CN2C(=O)CSc3ccc(S(=O)(=O)N(C)C)cc32)c1, COc1ccc(CCNC(=O)c2cc(-c3ccc(C)cc3)nc3n[nH]c(-c4ccccc4)c23)cc1OC, Cc1ccc(-c2nc3n(n2)C(c2ccccc2C)C=C(c2ccc(Cl)cc2)N3)cc1 (stereo unspecified)

Activity change, negative = inhibition, inactive:
COc1ccc(CNC(=O)CN(c2ccc(C)cc2)S(=O)(=O)c2c(C)n[nH]c2C)cc1 1.19%, COc1ccc2oc(=O)c(-c3csc(/C(C#N)=C/c4ccc(F)cc4)n3)cc2c1 10.7%, O=c1cc(CSc2ncn[nH]2)[nH]c2c(Cl)cccc12 2.44%, Cc1ccc2c(c1)N(C(=O)CCC(=O)Nc1ccccc1Cl)CC(C)O2 (stereo unspecified) -19.9%, CCN(CC)c1ccc(C(=O)NCc2ccc3c(c2)CCN3C(=O)c2ccccc2)cc1 6%, CCN1CCC(N(Cc2cccc(OC)c2)C(=O)Nc2cccc(C(F)(F)F)c2)CC1 -19.8%, O=C(Nc1ccc(-c2cc(C(F)(F)F)nn2-c2ccccc2)cc1)c1cccc(F)c1 -4.6%, CCOC(=O)c1c(NC(=O)c2cc(CC)on2)sc(C)c1C 0.858%, CC1CCCN(C(=O)Cn2c(=O)oc3cc(S(=O)(=O)N4CCCCC4)ccc32)C1 (stereo unspecified) 6.69%, CCOC(=O)c1c(C)[nH]c(C)c1S(=O)(=O)NCC(=O)Nc1cccc(C(F)(F)F)c1 -17.2%, CC1=C(C(=O)Nc2ccccc2C)C(c2cccnc2)n2nc(SCc3ccccc3)nc2N1 (stereo unspecified) 0.492%, COCCNC(=O)Cn1cc(S(=O)(=O)Cc2ccccc2Cl)c2ccccc21 5.02%, CCOC(=O)N1CCc2c(sc3c2c(=O)n(CCc2ccccc2)c(=O)n3Cc2cc(C)ccc2C)C1 6.26%, Cc1ccc(NC(=O)C(Cc2ccccc2)NS(=O)(=O)c2ccc3c(c2)oc(=O)n3C)c(Cl)c1 (stereo unspecified) -0.451%, COc1ccccc1NC(=O)c1cc(S(=O)(=O)N(C)C2CCCCC2)ccc1F -6.5%, Cc1ccc(-c2nnc(Nc3ccc(Br)cc3)c3ccccc23)cc1S(=O)(=O)N1CCOCC1 -7.42%, COc1ccc(-n2c(=O)c3sc4ccccc4c3n(CC(=O)Nc3cccc(C)c3)c2=O)cc1 -6.15%, CCN(CC)S(=O)(=O)c1ccc2c(c1)N(CC(=O)NCCc1ccc(OC)c(OC)c1)C(=O)CO2 8.06%, CCOc1ccccc1NC(=O)c1cn(C2CCCC2)c(=O)c2c1c1ccccc1n2C -18.9%, COC(=O)c1c(NC(=O)c2cccc(OC)c2)sc2c1CCC(C(C)(C)C)C2 (stereo unspecified) -9.07%, COc1ccccc1CNc1nc2nc(C)c(Cl)c(C)n2n1 4.83%, COc1cc(OC)c(Nc2nc3ccc(C)cc3n3nnnc23)cc1Cl 6.4%, COc1ccc(-c2cc(=O)n3[nH]cnc3n2)cc1 -2.53%, O=C(CCC(=O)N1CC2CCCN2c2ccccc21)NCc1ccccc1Cl (stereo unspecified) -7.58%, CC1CCCN(S(=O)(=O)c2cc3c(cc2Cl)NC(=O)CO3)C1 (stereo unspecified) 15.9%, Cc1nnc(NC(=O)CSc2nccn2-c2cccc(Cl)c2)s1 -6.84%, Cc1ccc(NC(=O)N2CCC(N3CCN(Cc4ccccc4)C(=O)C3=O)CC2)cc1Cl 0.969%, COc1ccc(N2CCN(c3ccc(-c4nc(-c5ccccc5C)no4)cc3[N+](=O)[O-])CC2)cc1 3.82%, Cc1cccc(-c2nc(SCC(=O)Nc3cc(C)on3)c3c(=O)n(C)c(=O)n(C)c3n2)c1 3.03%, Cc1ccccc1CCNC(=O)c1ccc2c(c1)c(C)c(C)n2C -1.11%, CN(C)S(=O)(=O)c1ccc2c(c1)N(CC(=O)NCc1ccccc1)C(=O)C1CCCCN21 (stereo unspecified) -0.82%, Cc1ccc2oc(=O)c3cc(C(=O)N4CCN(c5ccccc5)CC4)sc3c2c1 -10.4%, CC(C)(C)[N+]([O-])=Cc1ccc(S(=O)(=O)O)cc1S(=O)(=O)O -0.661%, Cn1nnnc1SCCCNCc1ccc(-c2ccc(Br)cc2)o1 -4.95%, Cc1cccc(CNC(=O)C2CCCN(S(=O)(=O)c3cn(C)cn3)C2)c1 (stereo unspecified) -8.64%, Cc1ccc(NC(=O)CSc2nc3ccccc3nc2Cc2ccccc2F)cc1F 12.7%, CCC1CN(C(=O)NCc2ccc(C)cc2)c2cc(C)ccc2O1 (stereo unspecified) -2.85%, CCCCCNC(=O)c1c[nH]c2ccc(S(=O)(=O)N3CCC(C)CC3)cc2c1=O 3.12%, CCc1ccccc1NC(=O)C1(S(=O)(=O)c2ccc(Cl)cc2)CC1 -10.9%, CCOC(=O)c1c(C)oc2ncnc(Nc3ccc(F)cc3Cl)c12 -6.67%, Cc1ccc(C)c(N2CCN(C(=O)c3cc4ccc5cccnc5c4[nH]3)CC2)c1 -23.1%, COc1ccc(CNC(=O)c2cc3c(=O)[nH]c4ccc(C)cc4c3s2)c(OC)c1 3.18%, COc1ccc(OC)c(NC(=O)CCn2cnnn2)c1 -10.3%, COc1cc(C(=O)NCC(c2ccc(N(C)C)cc2)N2CCc3ccccc32)cc(OC)c1OC (stereo unspecified) 7.46%, COc1ccccc1CNC(=O)CS(=O)(=O)c1cccc2nsnc12 -9.2%, Cc1ccc(CN2C(=O)c3ccccc3Sc3ccc(C(=O)NC4CCCCC4)cc32)cc1 -8.54%
